Measurements as given in PubChem BioAssay (EPA / NIEHS).
Certain results were filed several times, with different values. This list holds those alone. An entry can have further records. Values given together are repeats across runs, samples, wells, individuals or studies. Records with an inconclusive call do not appear. How the source made its calls, unless noted: active means hit-call score of the fitted dose curve at least 0.9, where 1 is the maximum; inconclusive means response in the unintended direction; inactive means score below 0.9. Where a structure was tested more than once in an assay, its records may differ in their call.

What was measured:
[1] = ATG_NRF2_ARE_CIS: Attagene CIS-FACTORIAL HepG2 Assay for human Nuclear Factor Erythroid 2 Related Factor 2 (NFR2) response to Antioxidant Response Elements (ARE) (AID 2282992; active means hit-call score of the fitted dose curve at least 0.9, where 1 is the maximum; inactive means score below 0.9); conditions: HepG2 Attagene ARE/NRF2 reporter, transcription factor activity; actives raise or lower the signal
Protocol: (§1) ATG_CIS is a cell-based, multiplexed-readout assay that uses HepG2, a human liver cell line, with measurements taken at 24 hours after chemical dosing in a 24-well plate.ATG_NRF2_ARE_CIS is one of 52 assay component(s) measured or calculated from the ATG_CIS assay. It is designed to make measurements of mRNA induction, a form of inducible reporter, as detected with fluorescence intensity signals by Reverse transcription polymerase chain reaction (RT-PCR) and Capillary electrophoresis technology.Data from the assay component ATG_NRF2_ARE_CIS was analyzed into 1 assay endpoint. This assay endpoint, ATG_NRF2_ARE_CIS, was analyzed with bidirectional fitting relative to DMSO as the negative control and baseline of activity. […] Furthermore, this assay endpoint can be referred to as a primary readout, because this assay has produced multiple assay endpoints where this one serves a reporter gene function. […]
(§2) Human liver HepG2 cells are transiently transfected with multiple reporter transcription units (MRTUs) in 6-well plates using FuGene 6 reagent (Roche; 3 ml FuGene/1 mg DNA). […] A major difference between the CIS and TRANS system is that in CIS activities of endogenous TFs are measured, whereas the TRANS assay evaluates changes in activities of exogenous, chimeric NR-Gal4 proteins. […]

[2] = biological target: Nuclear receptor subfamily 1 group I member 2 (Homo sapiens) (UniProt O75469); assay: ATG_PXR_TRANS: Attagene TRANS-FACTORIAL HepG2 Assay for human Pregnane X Receptor (PXR) (AID 2283008)
Summary of the method: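 HepG2 cells transiently transfected with multiple reporter units, here a PXR-GAL4 chimera driving a GAL4-UAS reporter; 24 h compound exposure. Reporter mRNA measured by RT-PCR, FAM labelling and capillary electrophoresis; gain of signal fitted against DMSO baseline.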

[3] = biological target: Glucocorticoid receptor (Homo sapiens) (UniProt P04150); assay: NVS_NR_hGR: NovaScreen (NVS) Nuclear Receptor Binding Assay for human Glucocorticoid Receptor (GR) (AID 2283363);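 further: activity is loss of specific radioligand binding signal relative to DMSO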
Summary of the method: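 Cell-free radioligand displacement assay on extracted human GR, read 16 h after dosing by filter-based scintillation counting. Screened in duplicate at 25 uM, then concentration series for actives; loss of signal versus DMSO baseline.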

[4] = ATG_PXRE_CIS: Attagene CIS-FACTORIAL HepG2 Assay for human Pregnane X Receptor Element (PXRE) (AID 2282957; active means hit-call score of the fitted dose curve at least 0.9, where 1 is the maximum; inactive means score below 0.9); conditions: HepG2 Attagene CIS-FACTORIAL PXRE reporter, mRNA; actives raise or lower the signal
Protocol: as §1, with “plate.ATG_PXRE_CIS” for “plate.ATG_NRF2_ARE_CIS”, “ATG_PXRE_CIS” for “ATG_NRF2_ARE_CIS”, “ATG_PXRE_CIS,” for “ATG_NRF2_ARE_CIS,”
as §2

[5] = biological target: rat Mineralocorticoid Receptor (MR), Nr3c2 (gene 25672) (UniProt P22199); assay: NVS_NR_rMR: NovaScreen (NVS) Nuclear Receptor Binding Assay for rat Mineralocorticoid Receptor (MR) (AID 2283355)
Summary of the method: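 Cell-free radioligand binding to mineralocorticoid receptor from adrenalectomized rat brain supernatant, scintillation counting after 24 h. Primary screen in duplicate at 25 uM; actives retested in concentration series. Loss of specific binding versus DMSO.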

[6] = ATG_TCF_b_cat_CIS: Attagene CIS-FACTORIAL HepG2 Assay for human T-Cell-Factor with beta-catenin (TCF/b-cat) (AID 2282965; active means hit-call score of the fitted dose curve at least 0.9, where 1 is the maximum; inactive means score below 0.9); conditions: HepG2 TCF/beta-catenin cis-reporter transcription, actives raise or lower the signal
Summary of the method: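 Cells of the HepG2 line carry transiently transfected reporter units whose promoters respond to endogenous factors. Twenty-four hours post-dosing, reporter mRNA induction is measured by fluorescent RT-PCR and capillary electrophoresis, with DMSO as baseline.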

Sequence of UniProt P22199 (P22199 whole entry, looked up): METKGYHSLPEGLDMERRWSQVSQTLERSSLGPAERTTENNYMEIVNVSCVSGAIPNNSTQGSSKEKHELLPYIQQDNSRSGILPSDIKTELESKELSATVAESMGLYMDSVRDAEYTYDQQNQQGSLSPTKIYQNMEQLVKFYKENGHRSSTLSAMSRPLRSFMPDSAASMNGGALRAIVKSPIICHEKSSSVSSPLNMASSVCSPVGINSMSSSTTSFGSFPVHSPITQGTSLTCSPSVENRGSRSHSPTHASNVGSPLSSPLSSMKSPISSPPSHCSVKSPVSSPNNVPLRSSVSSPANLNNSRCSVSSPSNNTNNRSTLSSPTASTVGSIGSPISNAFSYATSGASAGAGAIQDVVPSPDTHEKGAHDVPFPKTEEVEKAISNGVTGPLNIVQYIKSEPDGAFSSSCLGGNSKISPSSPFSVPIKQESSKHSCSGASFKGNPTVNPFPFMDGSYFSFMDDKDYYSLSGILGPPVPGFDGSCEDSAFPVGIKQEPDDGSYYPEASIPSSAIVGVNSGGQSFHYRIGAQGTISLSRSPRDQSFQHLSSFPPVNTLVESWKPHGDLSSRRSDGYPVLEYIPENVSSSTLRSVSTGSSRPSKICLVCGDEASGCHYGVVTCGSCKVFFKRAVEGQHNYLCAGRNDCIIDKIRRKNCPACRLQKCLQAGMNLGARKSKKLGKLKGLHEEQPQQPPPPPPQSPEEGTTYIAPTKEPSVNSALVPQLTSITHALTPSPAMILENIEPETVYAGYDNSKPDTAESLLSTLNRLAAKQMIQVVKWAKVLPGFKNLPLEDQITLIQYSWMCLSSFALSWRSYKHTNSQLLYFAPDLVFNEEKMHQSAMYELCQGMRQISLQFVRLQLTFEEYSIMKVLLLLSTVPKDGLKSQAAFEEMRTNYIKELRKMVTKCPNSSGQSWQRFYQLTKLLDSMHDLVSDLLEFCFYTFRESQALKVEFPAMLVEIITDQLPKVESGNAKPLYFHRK
Sequence of UniProt O75469 (O75469 whole entry, looked up, the tested form may be a part): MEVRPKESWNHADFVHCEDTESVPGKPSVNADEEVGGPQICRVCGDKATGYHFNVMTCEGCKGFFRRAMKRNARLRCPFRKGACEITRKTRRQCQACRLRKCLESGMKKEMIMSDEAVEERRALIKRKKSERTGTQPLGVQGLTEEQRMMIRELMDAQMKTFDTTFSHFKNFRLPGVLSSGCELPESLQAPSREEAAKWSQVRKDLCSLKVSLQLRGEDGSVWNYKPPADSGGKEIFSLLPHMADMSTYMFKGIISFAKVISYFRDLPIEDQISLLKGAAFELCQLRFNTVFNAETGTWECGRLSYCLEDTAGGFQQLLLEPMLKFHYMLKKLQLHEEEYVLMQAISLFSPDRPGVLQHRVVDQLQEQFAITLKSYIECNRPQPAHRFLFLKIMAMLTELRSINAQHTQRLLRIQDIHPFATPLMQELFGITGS
Sequence of UniProt P04150 (P04150 whole entry, looked up): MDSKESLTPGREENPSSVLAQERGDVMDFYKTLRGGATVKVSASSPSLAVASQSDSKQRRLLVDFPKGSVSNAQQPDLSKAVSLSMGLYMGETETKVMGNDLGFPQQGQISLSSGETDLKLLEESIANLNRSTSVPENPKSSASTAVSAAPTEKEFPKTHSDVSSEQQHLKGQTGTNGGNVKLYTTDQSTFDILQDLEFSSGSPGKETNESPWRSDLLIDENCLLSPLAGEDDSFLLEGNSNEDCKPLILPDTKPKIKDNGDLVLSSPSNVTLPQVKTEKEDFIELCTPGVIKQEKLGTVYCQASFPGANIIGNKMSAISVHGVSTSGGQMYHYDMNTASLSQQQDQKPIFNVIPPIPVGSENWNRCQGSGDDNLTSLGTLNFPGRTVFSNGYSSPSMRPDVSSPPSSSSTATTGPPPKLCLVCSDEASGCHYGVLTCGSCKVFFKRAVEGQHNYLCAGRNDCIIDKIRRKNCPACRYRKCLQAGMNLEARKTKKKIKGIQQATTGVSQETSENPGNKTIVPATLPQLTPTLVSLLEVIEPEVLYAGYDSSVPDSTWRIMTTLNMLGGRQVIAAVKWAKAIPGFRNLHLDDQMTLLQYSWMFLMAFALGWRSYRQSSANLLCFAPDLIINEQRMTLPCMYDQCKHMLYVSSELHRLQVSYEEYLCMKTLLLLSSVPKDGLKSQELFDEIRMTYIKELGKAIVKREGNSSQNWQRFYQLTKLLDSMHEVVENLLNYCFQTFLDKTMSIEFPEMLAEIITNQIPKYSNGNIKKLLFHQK

CCN(CC)CCOc1ccc(C(=C(Cl)c2ccccc2)c2ccccc2)cc1
AC50 [1]: active: 2.37 µM, 618 nM, 3.68 µM, 2.52 µM [separate samples] | AC50 [2]: active: 1.85 µM, 1.09 µM, 722 nM, 433 nM [separate samples] | AC50 [3]: active: 6.06, 2.8, 1.84, 1.53 µM [separate samples]

CC(=O)[C@@]1(O)CC[C@H]2[C@@H]3CCC4=CC(=O)CC[C@]4(C)[C@H]3CC[C@@]21C
AC50 [4]: active: 11.7, 27.3, 12.5, 4.74 µM [separate samples] | AC50 [5]: active: 25.5, 48.4, 25.1, 128 nM [separate samples] | AC50 [3]: active: 159, 59.4, 72.6, 13.9 nM [separate samples]

CC(=O)O[C@]1(C(C)=O)CC[C@H]2[C@@H]3C=C(Cl)C4=CC(=O)[C@@H]5C[C@@H]5[C@]4(C)[C@H]3CC[C@@]21C
AC50 [6]: active: 33.9, 137, 100, 51.8 µM [separate samples]
